Assay results published in PMC4534575, “The RNA Helicase DHX34 Activates NMD by Promoting a Transition from the Surveillance to the Decay-Inducing Complex” (Cell Reports, 2014).
Results are given in words; binding and its absence hold for the method and conditions named. In cells and extracts the contact can be indirect. Some binding calls cover weakened binding; strength is not graded here. For some assays here: Sequences can lack the tags named with a protein.

Key:
[1] = molecular target: T1, FLAG-UPF1 K498A (human) (UniProt Q92900); test: co-IP; anti-FLAG IP from HEK293T cells cotransfected with FLAG-UPF1 (wild-type or mutants) and T7-DHX34 (wild-type or ATPase mutants); RNase A in Figure 3C; T7-DHX34 by western blot
T1 sequence: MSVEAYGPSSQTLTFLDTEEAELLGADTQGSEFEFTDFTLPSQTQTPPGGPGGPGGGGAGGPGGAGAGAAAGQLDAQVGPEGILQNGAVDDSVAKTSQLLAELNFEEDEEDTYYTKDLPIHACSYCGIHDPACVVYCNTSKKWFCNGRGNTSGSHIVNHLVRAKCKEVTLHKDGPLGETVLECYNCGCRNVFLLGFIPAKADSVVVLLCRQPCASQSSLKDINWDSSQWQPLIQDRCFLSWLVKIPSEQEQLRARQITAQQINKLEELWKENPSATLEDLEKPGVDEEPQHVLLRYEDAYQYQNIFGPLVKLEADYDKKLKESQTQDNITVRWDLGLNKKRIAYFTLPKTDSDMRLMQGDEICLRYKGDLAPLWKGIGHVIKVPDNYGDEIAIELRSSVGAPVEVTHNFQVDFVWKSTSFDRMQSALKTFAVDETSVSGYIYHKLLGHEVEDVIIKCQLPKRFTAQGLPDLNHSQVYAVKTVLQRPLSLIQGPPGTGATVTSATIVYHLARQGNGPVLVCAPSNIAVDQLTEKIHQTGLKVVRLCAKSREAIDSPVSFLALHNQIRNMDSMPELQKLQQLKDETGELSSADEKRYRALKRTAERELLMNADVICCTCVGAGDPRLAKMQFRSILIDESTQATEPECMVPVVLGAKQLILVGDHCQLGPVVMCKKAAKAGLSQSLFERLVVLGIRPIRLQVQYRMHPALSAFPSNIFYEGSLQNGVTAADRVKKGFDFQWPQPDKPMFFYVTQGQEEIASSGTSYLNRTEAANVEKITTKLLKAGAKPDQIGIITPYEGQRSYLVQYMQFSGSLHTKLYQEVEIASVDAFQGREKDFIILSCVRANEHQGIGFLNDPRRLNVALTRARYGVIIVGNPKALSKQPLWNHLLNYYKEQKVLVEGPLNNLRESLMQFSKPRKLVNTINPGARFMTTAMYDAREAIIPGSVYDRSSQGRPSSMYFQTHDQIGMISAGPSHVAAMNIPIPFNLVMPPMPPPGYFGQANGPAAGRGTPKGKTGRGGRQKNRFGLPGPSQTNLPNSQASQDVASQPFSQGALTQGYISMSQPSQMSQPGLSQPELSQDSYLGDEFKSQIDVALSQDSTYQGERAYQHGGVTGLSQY

[2] = molecular target: T2, UPF1 G495R/G497E (human) (UniProt Q92900); test: as above
T2 sequence: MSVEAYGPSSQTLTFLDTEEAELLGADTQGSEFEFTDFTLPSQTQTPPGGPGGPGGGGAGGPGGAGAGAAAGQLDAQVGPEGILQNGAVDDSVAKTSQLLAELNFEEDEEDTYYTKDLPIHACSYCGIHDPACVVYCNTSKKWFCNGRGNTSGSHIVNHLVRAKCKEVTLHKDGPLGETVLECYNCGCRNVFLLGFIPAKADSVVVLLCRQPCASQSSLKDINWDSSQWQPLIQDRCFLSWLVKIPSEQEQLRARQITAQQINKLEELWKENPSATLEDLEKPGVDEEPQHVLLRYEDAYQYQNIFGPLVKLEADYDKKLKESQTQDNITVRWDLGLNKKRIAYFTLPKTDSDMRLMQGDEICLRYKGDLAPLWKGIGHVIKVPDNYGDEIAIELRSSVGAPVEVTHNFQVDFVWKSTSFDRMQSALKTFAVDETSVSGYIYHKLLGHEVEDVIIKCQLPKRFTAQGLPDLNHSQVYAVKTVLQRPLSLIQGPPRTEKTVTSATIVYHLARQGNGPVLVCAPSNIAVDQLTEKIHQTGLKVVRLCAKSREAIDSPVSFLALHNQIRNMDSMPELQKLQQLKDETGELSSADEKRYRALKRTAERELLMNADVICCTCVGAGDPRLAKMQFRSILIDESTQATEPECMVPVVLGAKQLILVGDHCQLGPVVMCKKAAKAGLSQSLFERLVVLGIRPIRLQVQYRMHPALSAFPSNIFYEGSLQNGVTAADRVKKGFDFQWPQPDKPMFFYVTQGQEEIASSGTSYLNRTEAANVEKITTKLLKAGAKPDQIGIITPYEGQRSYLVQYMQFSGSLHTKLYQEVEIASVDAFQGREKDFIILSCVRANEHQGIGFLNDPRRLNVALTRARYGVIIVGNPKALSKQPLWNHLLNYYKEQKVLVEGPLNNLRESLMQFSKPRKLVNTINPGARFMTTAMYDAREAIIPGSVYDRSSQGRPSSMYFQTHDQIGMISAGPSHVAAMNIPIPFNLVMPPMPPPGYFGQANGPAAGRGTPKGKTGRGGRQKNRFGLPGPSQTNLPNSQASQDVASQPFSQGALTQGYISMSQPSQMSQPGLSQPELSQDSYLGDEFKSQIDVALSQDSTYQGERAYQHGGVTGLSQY

binding [1]: binds
binding [2]: binds
B1: T7-DHX34 (wild-type) (protein, UniProt Q14147 1-1143)
chain: MPPPRTREGRDRRDHHRAPSEEEALEKWDWNCPETRRLLEDAFFREEDYIRQGSEECQKFWTFFERLQRFQNLKTSRKEEKDPGQPKHSIPALADLPRTYDPRYRINLSVLGPATRGSQGLGRHLPAERVAEFRRALLHYLDFGQKQAFGRLAKLQRERAALPIAQYGNRILQTLKEHQVVVVAGDTGCGKSTQVPQYLLAAGFSHVACTQPRRIACISLAKRVGFESLSQYGSQVGYQIRFESTRSAATKIVFLTVGLLLRQIQREPSLPQYEVLIVDEVHERHLHNDFLLGVLQRLLPTRPDLKVILMSATINISLFSSYFSNAPVVQVPGRLFPITVVYQPQEAEPTTSKSEKLDPRPFLRVLESIDHKYPPEERGDLLVFLSGMAEISAVLEAAQTYASHTQRWVVLPLHSALSVADQDKVFDVAPPGVRKCILSTNIAETSVTIDGIRFVVDSGKVKEMSYDPQAKLQRLQEFWISQASAEQRKGRAGRTGPGVCFRLYAESDYDAFAPYPVPEIRRVALDSLVLQMKSMSVGDPRTFPFIEPPPPASLETAILYLRDQGALDSSEALTPIGSLLAQLPVDVVIGKMLILGSMFSLVEPVLTIAAALSVQSPFTRSAQSSPECAAARRPLESDQGDPFTLFNVFNAWVQVKSERSRNSRKWCRRRGIEEHRLYEMANLRRQFKELLEDHGLLAGAQAAQVGDSYSRLQQRRERRALHQLKRQHEEGAGRRRKVLRLQEEQDGGSSDEDRAGPAPPGASDGVDIQDVKFKLRHDLAQLQAAASSAQDLSREQLALLKLVLGRGLYPQLAVPDAFNSSRKDSDQIFHTQAKQGAVLHPTCVFAGSPEVLHAQELEASNCDGSRDDKDKMSSKHQLLSFVSLLETNKPYLVNCVRIPALQSLLLFSRSLDTNGDCSRLVADGWLELQLADSESAIRLLAASLRLRARWESALDRQLAHQAQQQLEEEEEDTPVSPKEVATLSKELLQFTASKIPYSLRRLTGLEVQNMYVGPQTIPATPHLPGLFGSSTLSPHPTKGGYAVTDFLTYNCLTNDTDLYSDCLRTFWTCPHCGLHAPLTPLERIAHENTCPQAPQDGPPGAEEAALETLQKTSVLQRPYHCEACGKDFLFTPTEVLRHRKQHV
